# Screen size: about 220,000 compounds; about 5,700 (2.6%) were called active. Inconclusive results, whose numbers are uncertain, are shown with a selection of clear calls. Calls come from the whole dose curve; as a rule, active = well fitted inhibition curve with a large enough effect; inconclusive = small, poorly fitted or top-dose-only effect; inactive = no such curve, though single readings can be large or run the other way. A potency beside an inconclusive call is a rough fit, not a confirmed value.
# Target: Lysine-specific demethylase 5B (Homo sapiens) (UniProt Q9UGL1)
# Assay: Primary screen for KDM5B Histone Demethylases FDH-coupled qHTS; note: nearly all actives have a fitted effect of over 70% in size
# Conditions: FDH-coupled NADH fluorescence (FDH is formaldehyde dehydrogenase); series mostly up to 57.7 µM
# Outline: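 qHTS format, multiple compound concentrations. Buffer 50 mM HEPES pH 7.5/0.01% Tween-20; 200 nM KDM5BΔAP final; 10 min compound preincubation; substrate-mix levels 12.5 µM peptide, 25 µM α-KG, 0.25 mM NAD⁺; 30 min RT; ΔRFU.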
# Potency is the fitted concentration of half-maximal effect; tags give direction and shape of the fitted curve.
# Sequence of UniProt Q9UGL1 (Q9UGL1 whole entry, looked up): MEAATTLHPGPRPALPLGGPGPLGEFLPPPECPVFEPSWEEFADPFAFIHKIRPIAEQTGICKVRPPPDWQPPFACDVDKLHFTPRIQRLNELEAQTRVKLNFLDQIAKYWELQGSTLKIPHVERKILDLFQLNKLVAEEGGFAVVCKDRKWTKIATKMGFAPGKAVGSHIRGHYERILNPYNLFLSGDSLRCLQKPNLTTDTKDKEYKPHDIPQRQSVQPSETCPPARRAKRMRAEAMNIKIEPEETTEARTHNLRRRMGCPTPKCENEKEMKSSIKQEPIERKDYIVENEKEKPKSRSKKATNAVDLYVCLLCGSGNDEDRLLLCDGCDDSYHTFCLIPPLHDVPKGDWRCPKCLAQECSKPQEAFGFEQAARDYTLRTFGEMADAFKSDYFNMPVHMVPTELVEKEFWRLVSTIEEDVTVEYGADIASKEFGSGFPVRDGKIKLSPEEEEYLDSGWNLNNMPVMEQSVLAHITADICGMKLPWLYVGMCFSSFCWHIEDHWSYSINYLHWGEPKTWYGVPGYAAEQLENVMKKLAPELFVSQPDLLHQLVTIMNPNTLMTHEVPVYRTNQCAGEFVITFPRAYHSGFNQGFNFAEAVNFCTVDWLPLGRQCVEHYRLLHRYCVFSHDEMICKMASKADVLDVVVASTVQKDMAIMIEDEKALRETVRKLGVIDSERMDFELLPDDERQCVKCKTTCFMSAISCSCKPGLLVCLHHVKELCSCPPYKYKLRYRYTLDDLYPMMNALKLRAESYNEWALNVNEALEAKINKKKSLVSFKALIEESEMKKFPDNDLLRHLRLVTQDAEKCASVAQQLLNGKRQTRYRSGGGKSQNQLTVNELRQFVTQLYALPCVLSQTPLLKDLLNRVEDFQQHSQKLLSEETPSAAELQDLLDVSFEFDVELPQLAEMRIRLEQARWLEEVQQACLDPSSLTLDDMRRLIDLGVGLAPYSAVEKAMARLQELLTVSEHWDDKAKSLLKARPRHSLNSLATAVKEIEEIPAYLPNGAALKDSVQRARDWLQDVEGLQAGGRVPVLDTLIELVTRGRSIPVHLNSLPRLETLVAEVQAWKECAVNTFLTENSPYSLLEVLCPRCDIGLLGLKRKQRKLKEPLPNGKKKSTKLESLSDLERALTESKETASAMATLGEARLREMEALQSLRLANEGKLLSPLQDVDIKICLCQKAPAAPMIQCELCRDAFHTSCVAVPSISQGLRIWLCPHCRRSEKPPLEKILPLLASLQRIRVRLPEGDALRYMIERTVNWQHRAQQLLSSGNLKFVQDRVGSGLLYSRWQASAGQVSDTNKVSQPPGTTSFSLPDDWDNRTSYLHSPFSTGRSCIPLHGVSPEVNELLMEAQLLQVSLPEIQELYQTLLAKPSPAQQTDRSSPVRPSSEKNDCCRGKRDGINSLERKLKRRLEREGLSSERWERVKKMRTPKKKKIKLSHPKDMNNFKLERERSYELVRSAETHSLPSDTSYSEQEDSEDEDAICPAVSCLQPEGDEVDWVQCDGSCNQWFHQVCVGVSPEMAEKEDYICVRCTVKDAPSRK
row,SMILES,Potency
1,COc1ccc(-c2cc(C#N)nc(Cl)n2)cc1,"inconclusive: 39.8 µM [inhibitor, single point]"
2,O=C(Nc1ccc(-c2nnc3n2CCCC3)cc1)c1cc(-c2ccccc2)n[nH]1,active: 31.6 µM
3,Cn1cc(CNc2ccc(-c3nc(-c4cccc(C(F)(F)F)c4)no3)cn2)cn1,"inconclusive: 28.2 µM [inhibitor, partial curve, poor fit]"
4,Fc1ccccc1OCC1CCCN(c2nccc(-c3cccnc3)n2)C1 (stereo unspecified),active: 28.2 µM
5,COc1ccccc1CNC(=O)c1sc(NC2CCCC2)nc1C,inactive
6,COCC(=O)NC[C@H]1OC[C@@H](NC2CCCCC2)[C@@H]1O,inactive
7,COc1ccc(CNC(=O)c2cnc3cc(C)ccn3c2=O)cc1,inactive
8,O=C(/C(C=Nc1ccccc1F)=C(/O)c1ccco1)C(F)(F)F,inactive
9,CC1=C(O[Si](C)(C)C)CC2C(=O)OC(=O)C2C1c1ccccc1 (stereo unspecified),inactive
10,CCNC[C@H]1O[C@H](Cc2cc(-c3ccc(F)cc3)on2)CC[C@@H]1O,inactive
11,Cc1ccc(Cn2ccn3nc(-c4ccccc4)c(CO)c3c2=O)cc1,"inconclusive: 39.8 µM [inhibitor, partial curve, poor fit]"
12,CN1c2cc(C(=O)NCc3cccc(F)c3)ccc2C(=O)N2CCCCC21 (stereo unspecified),"inconclusive: 20 µM [inhibitor, partial curve, poor fit]"
13,NC(=O)c1ccc(NC(=O)COC(=O)c2cc(=O)[nH]c3ccccc23)cc1,inactive
14,COc1ccc2[nH]c3c(c2c1)CCNC31CCN(C(=O)c2c(C)noc2C)CC1,"inconclusive: 14.1 µM [inhibitor, partial curve]"
15,Cc1ccsc1/C=C1\Oc2cc(OC(=O)C(C)(C)C)ccc2C1=O,inactive
16,CCOc1ccc(-c2nc(CSCC(=O)NCC(OC)OC)c(C)o2)cc1,"inconclusive: 39.8 µM [inhibitor, single point]"
17,CCc1ccc(OC(=O)c2ccc(C)cc2)cc1,inactive
18,Cc1cccc(NC(=O)CN2CCN(C(=O)NCc3ccccc3)CC2)c1C,inactive
19,Cc1ccc(CCNC(=O)C2CC2)o1,"inconclusive: 12.6 µM [inhibitor, partial curve, poor fit]"
20,O=C(NCC(c1cccnc1)N1CCCCC1)c1cn2c(n1)CNCC2 (stereo unspecified),"inconclusive: 14.1 µM [inhibitor, partial curve, poor fit]"
21,O=C(CCC1CCCC1)Nc1cccc(-c2nnc3n2CCCC3)c1,inactive
22,COc1ccc(-c2ccc3c(c2)C(=O)N2CC[C@H](NC(=O)CSC)[C@H]2C(=O)N3)cc1,"inconclusive: 35.5 µM [inhibitor, partial curve, poor fit]"
23,O=C(O)c1cc2c(c(S(=O)(=O)Nc3cccc(Cl)c3F)c1)CCC2,inactive
24,CCN(C(=O)c1ccco1)c1nc(-c2ccc(C)cc2)cs1,inactive

row,SMILES,Potency
1,O=C(NCc1cccn1Cc1ccc(Cl)cc1)NC12CC3CC(CC(C3)C1)C2,inactive
2,CCOc1ccc(NC(=O)c2cc3n(n2)CC(c2ccc4c(c2)OCO4)OC3)cc1 (stereo unspecified),"inconclusive: 31.6 µM [inhibitor, single point]"
3,C=CCc1ccccc1OCC(O)CN1CCN(c2ccccc2)CC1 (stereo unspecified),"inconclusive: 28.2 µM [inhibitor, partial curve, poor fit]"
4,CCn1c(=O)n(CC)c2cc(N3CCCCC3)c(NC(=O)Nc3ccccc3C(F)(F)F)cc21,"inconclusive: 17.8 µM [inhibitor, single point]"
5,CCO[C@H]1C[C@@H](O)C12CCN(C(=O)c1cc3nc(C)cc(C)n3n1)CC2,active: 28.2 µM
6,Cc1cc(=O)oc2cc(OCC(=O)NCCc3ccc(S(N)(=O)=O)cc3)ccc12,"inconclusive: 25.1 µM [inhibitor, partial curve, poor fit]"
7,COc1ccc(-n2nc(C3CCCN(Cc4cccc5ccccc45)C3)[nH]c2=O)cc1 (stereo unspecified),"inconclusive: 10 µM [inhibitor, partial curve, poor fit]"
8,CN(C)C[C@@H]1CN(C)C[C@H]1NC(=O)c1ccccc1OC(F)(F)F,inactive
9,O=C(Cn1nnc(-c2ccc(Cl)cc2)n1)NCc1ccc(F)cc1,inactive
10,Cc1cc(C)cc(C(=O)NCCc2c[nH]c3ccccc23)c1,inactive
11,Cc1cccc(Cn2c(-c3ccc[nH]c3=O)nc3ccccc32)c1,"inconclusive: 22.4 µM [inhibitor, partial curve, poor fit]"
12,Cc1ccc2nc(-c3ccccc3)cc(C(=O)NCC(=O)NC3CC3)c2c1,"inconclusive: 12.6 µM [inhibitor, partial curve, poor fit]"
13,Cc1cnc(CCNC(=O)Cc2ccncc2)n1CC1CC1,inactive
14,COC(=O)c1c(NC(=O)c2ccncc2)sc(C(=O)Nc2ccccc2)c1C,inactive
15,O=C1CC2(CCN(C(=O)c3ccccc3)CC2)Oc2ccccc21,active: 31.6 µM
16,Clc1ccccc1CNc1nc2ccccc2c2nc(-c3cccnc3)nn12,"inconclusive: 17.8 µM [inhibitor, partial curve, poor fit]"
17,Cc1ccc(-c2cc(N3CCCN(C(=O)Cc4ccccc4Cl)CC3)n[nH]2)cc1C,"inconclusive: 15.8 µM [inhibitor, single point]"
18,Cc1cccc(CN2CCCN(c3cccc(C(=O)NCc4ccc5c(c4)OCO5)c3)C2=O)c1,inactive
19,O=C1CCCC2=C1C(c1ccccc1F)n1nnnc1N2 (stereo unspecified),inactive
20,CCCc1noc(-c2ccn3c(CNC(=O)c4ccco4)nnc3c2)n1,active: 28.2 µM
21,CC(=O)Nc1ccc(/C=C/C(=O)N(C)C(C)c2ccc(C)s2)cc1 (stereo unspecified),inactive
22,O=C(c1cc(Br)cn2ccnc12)N1CCC(N2CCNC2=O)CC1,"inconclusive: 14.1 µM [inhibitor, partial curve]"
23,COc1ccc(OC)c(CN2CCN(Cc3cc(=O)oc4cc(O)ccc34)CC2)c1,"inconclusive: 22.4 µM [inhibitor, partial curve, poor fit]"
24,COc1ccc(/C=C/C(=O)Nc2nc3n(n2)C(c2ccccc2)C=C(c2ccccc2)N3)cc1 (stereo unspecified),"inconclusive: 17.8 µM [inhibitor, partial curve, poor fit]"

row,SMILES,Potency
1,Cc1ccc(-c2cnc(NCc3ccc(C(F)(F)F)cc3)n2C)cc1,"inconclusive: 14.1 µM [inhibitor, partial curve, poor fit]"
2,CCOC(=O)c1cc2c(=O)n3ccccc3nc2n(CC(C)C)c1=NC(=O)c1cc2ccccc2o1,"inconclusive: 25.1 µM [inhibitor, partial curve, poor fit]"
3,CC1=C[C@@H](CN2CCC(O)CC2)[C@H](C(C)C)C[C@H]1Cc1nnc(-c2ccncc2)o1,"inconclusive: 35.5 µM [inhibitor, partial curve]"
4,CCOCCn1ccc2c(OCC(=O)Nc3ccc(OC(F)(F)F)cc3)cccc2c1=O,"inconclusive: 39.8 µM [inhibitor, single point]"
5,S=C(Cc1nc(-c2ccc(C3CCCCC3)cc2)cs1)N1CCOCC1,inactive
6,CCC/C(=N\NC(=O)c1ccc(C(C)(C)C)cc1)c1ccccc1,inactive
7,CC1=C(C(=O)Nc2ccccc2)C(c2cccc(Cl)c2)n2ncc(C(=O)Nc3cccc(C)c3)c2N1 (stereo unspecified),"inconclusive: 35.5 µM [inhibitor, partial curve, poor fit]"
8,CC1=C2C(=O)CC(c3ccc(F)cc3)CC2=Nc2ccccc2N1 (stereo unspecified),inactive
9,CC(NC(=O)CNC(=O)c1cccs1)c1ccc2ccccc2c1 (stereo unspecified),inactive
10,COc1cccc2cc(C(=O)NCCc3c(C)[nH]c4ccc(Br)cc34)c(=O)oc12,"inconclusive: 1.41 µM [inhibitor, full curve, poor fit]"
11,Cc1ccc(-n2ncc(C(=O)Nc3ccc4c(c3)OCO4)c2C2CCN(C(=O)OC(C)(C)C)CC2)cc1,"inconclusive: 15.8 µM [inhibitor, partial curve, poor fit]"
12,CC(C)OCCCN1CN(S(=O)(=O)c2cccs2)c2nc3ccccc3nc21,"inconclusive: 31.6 µM [inhibitor, partial curve, poor fit]"
13,Cc1noc(C)c1CN1CCC2(CC1)COCCN2C(=O)c1ccccc1,inactive
14,N#CCCN(Cc1cccs1)C(=O)c1ccc(Cl)cc1,"inconclusive: 20 µM [inhibitor, partial curve, poor fit]"
15,Cc1ccc(CN(C)Cc2ccco2)cc1,inactive
16,Cc1cc2cc(-c3c(C)noc3C)nc(-c3ccsc3)c2o1,"inconclusive: 35.5 µM [inhibitor, single point]"
17,CCn1nccc1C(=O)N1CCCN(C)c2ccccc21,"inconclusive: 20 µM [inhibitor, partial curve, poor fit]"
18,CCn1nc(C(=O)OC(C)C(=O)c2c[nH]c3ccccc23)c2ccccc2c1=O (stereo unspecified),inactive
19,COc1ccccc1-c1nc(C#N)c(N(C)Cc2ccccc2)o1,"inconclusive: 15.8 µM [inhibitor, partial curve, poor fit]"
20,CC#CCn1cc2c3c(cccc31)[C@H](CC(C)C)N[C@H](C(=O)NCCN1CCOCC1)C2,"inconclusive: 28.2 µM [inhibitor, partial curve, poor fit]"
21,COc1ccc(-c2cc(N3CCCC(NC(=O)c4ccc(C#N)cc4)C3)n[nH]2)cc1 (stereo unspecified),"inconclusive: 31.6 µM [inhibitor, partial curve, poor fit]"
22,CS(=O)(=O)Nc1ccccc1NS(C)(=O)=O,"inconclusive: 22.4 µM [inhibitor, partial curve, poor fit]"
23,CCOc1ccc(-c2cc3c(=O)n(CCNC(=O)c4ccc(C#N)cc4)ccn3n2)cc1,active: 20 µM
